The campaign covered roughly 310,000 compounds. About 2,200 (0.71%) showed an effect of 50% or more. Effects have a minus sign here. This is one part of the list.
target: human ether-à-go-go-related gene (hERG) potassium channel (human, UniProt Q12809); assay: primary screen, population patch clamp on CHO cells stably expressing hERG
Sequence (Q12809 whole entry, looked up): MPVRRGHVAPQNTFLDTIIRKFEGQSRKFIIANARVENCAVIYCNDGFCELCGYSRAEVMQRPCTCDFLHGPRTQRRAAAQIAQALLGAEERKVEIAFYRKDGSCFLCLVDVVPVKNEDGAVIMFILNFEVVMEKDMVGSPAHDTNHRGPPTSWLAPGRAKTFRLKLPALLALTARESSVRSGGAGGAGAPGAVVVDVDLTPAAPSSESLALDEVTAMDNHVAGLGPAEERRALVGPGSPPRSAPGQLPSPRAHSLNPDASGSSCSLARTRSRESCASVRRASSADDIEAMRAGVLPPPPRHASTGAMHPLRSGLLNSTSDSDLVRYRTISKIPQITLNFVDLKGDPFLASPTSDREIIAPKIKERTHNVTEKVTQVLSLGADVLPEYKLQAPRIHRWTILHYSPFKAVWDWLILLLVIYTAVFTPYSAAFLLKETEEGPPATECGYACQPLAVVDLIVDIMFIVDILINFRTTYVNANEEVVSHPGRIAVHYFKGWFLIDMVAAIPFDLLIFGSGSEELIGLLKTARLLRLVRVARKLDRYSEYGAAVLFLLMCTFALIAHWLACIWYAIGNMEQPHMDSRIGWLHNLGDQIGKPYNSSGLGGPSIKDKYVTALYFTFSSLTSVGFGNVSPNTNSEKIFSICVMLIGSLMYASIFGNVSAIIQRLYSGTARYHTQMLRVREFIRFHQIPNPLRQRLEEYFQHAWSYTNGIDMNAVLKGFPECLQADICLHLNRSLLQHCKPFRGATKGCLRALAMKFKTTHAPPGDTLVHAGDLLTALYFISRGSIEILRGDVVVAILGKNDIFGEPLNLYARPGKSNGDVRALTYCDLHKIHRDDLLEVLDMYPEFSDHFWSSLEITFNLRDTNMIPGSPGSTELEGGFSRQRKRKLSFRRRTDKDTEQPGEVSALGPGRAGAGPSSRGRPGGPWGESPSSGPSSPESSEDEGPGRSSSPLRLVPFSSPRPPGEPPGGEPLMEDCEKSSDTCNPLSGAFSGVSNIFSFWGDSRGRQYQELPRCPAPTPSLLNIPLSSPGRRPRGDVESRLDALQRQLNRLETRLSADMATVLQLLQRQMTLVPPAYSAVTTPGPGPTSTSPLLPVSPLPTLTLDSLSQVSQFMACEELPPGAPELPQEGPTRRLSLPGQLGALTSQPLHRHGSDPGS

Compound	hERG current change (%, negative = inhibition) at 1uM
CCCCOc1ccc(C(=O)OCC(=O)Nc2cc(C)on2)cc1	2.32%
C/C(=N/NC(=O)CNC(=O)Cc1ccccc1)c1ccco1	13%
Cc1c(C(=O)OCC(=O)N2c3ccccc3CC2C)oc2ccccc12 (stereo not shown)	14.6%
COC(=O)c1cnc(SCc2ccc(Cl)cc2)n1C	11.8%
CC12CCC(=O)N1C(C(=O)OCC(=O)Nc1ccc(S(N)(=O)=O)cc1)CS2 (stereo not shown)	14.8%
CCN(CC)S(=O)(=O)c1ccc(Cl)c(NC(=O)COC(=O)c2cccn2C)c1	7.32%
Cc1cccc(NC(=O)c2sc(NC(=O)c3ccco3)c(C#N)c2C)c1C	13.6%
COc1ccccc1C(=O)NC(=S)Nc1ccc(N2CCN(C(=O)c3ccco3)CC2)cc1	13.5%
COc1ccc(O)c(C2=Nc3ccccc3N=C(c3cccs3)C2)c1	9.52%
CCn1c(=O)n(CC)c2cc(S(=O)(=O)N3CCC(c4ccccc4)CC3)ccc21	10.7%
Cc1onc(-c2ccccc2Cl)c1C(=O)N1CCCCC1C (stereo not shown)	4.52%
CCN(Cc1ccccc1)S(=O)(=O)c1cc(C(=O)NCCCN(C)C)ccc1OC	-3.38%
O=C(Nc1ccccc1Br)c1cc[n+]([O-])cc1	17.4%
CCCNC(=S)N1CC2(C)CN(C(=O)C(=O)OC)CC(C)(C1)C2=O	12.3%
COc1ccc(CNCc2ccc3c(c2)OCO3)c(OC)c1OC.O=C(O)C(=O)O	11.8%
CCN(CC(=O)Nc1c(F)cccc1F)C(=O)Cc1ccc2c(c1)CCC2	17.7%
O=C1c2ccccc2C(=O)C1c1ccccc1F	0.0065%
COc1cc(CNC2CCCC2)cc(Cl)c1OCc1ccccc1F.Cl	9.2%
O=C(NC(=O)c1c(F)cccc1F)Nc1ccccc1SC(F)F	9.26%
CCOC(=O)c1ccccc1NC1OC(=O)c2ccccc21 (stereo not shown)	15.7%
O=C(Cn1c(C(F)(F)F)nc2ccccc21)Nc1ccccc1N1CCOCC1	9.75%
O=C(COC(=O)c1ccccc1F)NC1CC1	7.9%

Compound	hERG current change (%, negative = inhibition) at 1uM
CN(C)CCN1C(=O)c2oc3ccc(Cl)cc3c(=O)c2C1c1cccc(Br)c1 (stereo not shown)	7.41%
Cc1ccc(-c2csc3ncn(CC#N)c(=O)c23)cc1C	8.7%
O=C1NC(c2ccc(Cl)cc2)=COc2ccccc21	7.65%
CCc1ccc2c(CN3CCC(C(=O)OC)CC3)cc(=O)oc2c1	5.12%
COC(=O)CSc1nc(NC(C)(C)C)nc(N(C)C)n1	-9.25%
NC(=O)CC(NC(=O)Cc1cccc2ccccc12)c1ccc(NCCc2ccccc2F)c([N+](=O)[O-])c1 (stereo not shown)	16.1%
Cc1cc(NC(=O)CSc2nc3c(c(=O)n2Cc2ccccc2)SC(C)C3)no1 (stereo not shown)	13.6%
COc1cc(NC(=O)CCS(=O)(=O)c2ccc3c(c2)oc(=O)n3C)cc(OC)c1OC	17.5%
COc1ccc(C(CNC(=O)c2cccc(S(=O)(=O)N3CCCC3)c2)N2CCCC2)cc1 (stereo not shown)	5.51%
CC(=O)Oc1ccc(/C=N/NC(=O)CCSc2ccccc2)cc1	13.8%
N#Cc1ccsc1NC(=O)COc1ccc(-c2nnco2)cc1	10%
CCCNC(=O)COc1ccc(S(=O)(=O)Nc2ccc(C)cc2)cc1	-6.15%
O=C1C2CCCN2C(=S)N1c1ccccc1 (stereo not shown)	8.34%
CCOC(=O)CN1C(=O)S/C(=C\c2ccc(-c3ccc(C(=O)O)c(Cl)c3)o2)C1=O	10.1%
O=[N+]([O-])c1cccnc1Sc1ccc(Cl)cc1	10.2%
COc1cc(NC(=S)NC(=O)CC(C)C)ccc1NC(=O)c1cc2ccccc2o1	20.2%
COc1ccccc1N1CCN(S(=O)(=O)CCNC(=O)C23CC4CC(CC(C4)C2)C3)CC1	13.9%
O=c1cc(CO)oc(C(Nc2ccccn2)c2ccccc2Cl)c1O (stereo not shown)	13.1%
O=C(CN1C(=O)CC(c2ccccc2)=Nc2ccccc21)NCc1ccco1	4.88%
CCc1ccc(S(=O)(=O)N2CC(=O)Nc3ccccc32)cc1	6.83%
COc1cc(CN2CCCC(N3CCc4ccccc4C3)C2)c(Cl)cc1O (stereo not shown)	3.62%
O=C(CN1C(=O)/C(=C/c2ccccc2F)Oc2ccccc21)N1CCN(c2ccccn2)CC1	10.4%

Compound	hERG current change (%, negative = inhibition) at 1uM
CNC(=O)c1c(NC(=O)CCS(=O)(=O)c2ccc(C)cc2)sc(C)c1C	12.4%
NC(=O)NCCCC(=O)OCC(=O)c1ccc2ccccc2c1	7.37%
COCc1cc(C)nc2sc(C(=O)OC)c(N)c12	8.13%
Nc1ccccc1Sc1ccccc1[N+](=O)[O-]	2.25%
COc1ccc2nc3sc(C(=O)N4CCN(C)CC4)cc3cc2c1	-12%
Cc1ccc(N2C(=O)[C@@H]3[C@H](C2=O)[C@H]2C=CC=NN2[C@@H]3C(=O)Nc2ccc(Cl)cc2)cc1	-5.19%
CC1CCCC(C)N1c1nnc(N)s1 (stereo not shown)	10.6%
N#Cc1ccsc1NC(=O)CN1CCN(c2ccccn2)CC1	-0.508%
O=C(O)CCCC[C@@H]1SC[C@@H]2NC(=O)N[C@@H]21	3.57%
COc1ccc(-n2cccc2/C=C2/NC(=O)N(c3cccc(Cl)c3)C2=O)cc1	7.56%
O=C(Nc1ccc2c(c1)OCCO2)c1cnn(-c2ccccc2)n1	3.15%
CC(=O)Nc1ccc(NC(=S)NC(=O)C2CCCC2)cc1	-8.3%
O=C1N[C@H](Cc2ccccc2)CO1	11.8%
CCOc1ccc(NC(=O)Cn2cncc2-c2ccc([N+](=O)[O-])cc2)cc1	5.94%
CCN1CCN(CC(=O)c2c(C)n(Cc3ccccc3)c3ccc(OC)cc23)CC1	-6.24%
Cc1cccc(NCC(=O)N/N=C\c2ccc[nH]2)c1	11.9%
Cc1ccccc1-c1nnc(-c2ccccc2C)o1	12.8%
CC(/C=C/c1ccccc1)=N\NC(=S)NC(C)C	8.31%
CCc1nc2sccc2c(=O)[nH]1	11.9%
O=C1c2cccc3cccc(c23)C(=O)N1/N=C/c1ccc(O)cc1O	6.22%
CN(C)CCCN(C(=O)c1ccc(S(=O)(=O)N(C)C)cc1)c1nc2cc3c(cc2s1)OCO3.Cl	16.8%
COCCN1Cc2cccc(C(=O)NCc3cccnc3)c2C1=O	6.37%

Compound	hERG current change (%, negative = inhibition) at 1uM
CCCCN(C(=O)COC(=O)COc1c(C)cc(C)cc1C)c1c(N)n(CCC)c(=O)[nH]c1=O	7.95%
COc1ccc([N+](=O)[O-])cc1NC(=O)C(C)OC(=O)C1CCC1 (stereo not shown)	11%
CCc1cc(C(=O)N/N=C/c2ccc(OC)cc2)c2ccccc2n1	8.3%
Cc1nc2ccc(CN(C)c3ccc(C(=O)N[C@@H](CCC(=O)O)C(=O)O)s3)cc2c(=O)[nH]1	14.6%
Cc1ccc(CNC(=O)c2ccc3c(c2)S(=O)(=O)c2ccccc2C3=O)cc1	2.33%
CCN1CCc2nc3ccccc3c(C(=O)Nc3ccc(C#N)cc3)c2C1	-65.8%
O=C(O)C(=O)O.O=C(c1cccc(Cl)c1)N1CCN(C2CCCCCC2)CC1	-15.4%
Cc1ccc(N2CC(C(=O)OCC(=O)c3ccc(C)c([N+](=O)[O-])c3)CC2=O)cc1 (stereo not shown)	14.3%
O=c1c2nnn(Cc3ccccc3)c2ncn1-c1ccccc1	19.3%
Cc1cccc(OCC(=O)O/N=C(\N)Cc2ccc([N+](=O)[O-])cc2)c1	3.06%
CCn1ncc(C2=NOC(C(=O)N3CCC(C(N)=O)CC3)C2)c1C (stereo not shown)	2.26%
COc1ccc(-c2csc(-c3cccs3)n2)c(OC)c1	10.2%
CCOC(=O)c1cc2c(=O)n3ccccc3nc2n(CCCOC)c1=NC(C)=O	-15.6%
CCOC(=O)c1c[nH]c(=S)n1C	13.4%
CCCCn1c(SCC(=O)N2CCC(C(=O)OCC)CC2)nc2cc(S(N)(=O)=O)ccc21	-36.1%
NS(=O)(=O)c1ccc(CCNc2ccnc3cc(Cl)ccc23)cc1	4.33%
Cc1ccc(-n2c(-c3ccccc3)c[n+]3c2CCC3)cc1.[Br-]	-2.23%
COC(=O)c1ccc(N2CCN(S(=O)(=O)c3ccccc3)CC2)c([N+](=O)[O-])c1	-0.0184%
CCc1nc(-c2ccc(-c3ccc(OC)cc3)nc2OC)no1	13.5%
COC(=O)C1CCN(C(=O)C2CCC(=O)N(CCc3cccc(F)c3)C2)CC1 (stereo not shown)	9.77%
CS(=O)(=O)N1CCC(C(=O)Nc2ccc3c(c2)OCCO3)CC1	7.2%
CN(C)c1ccc(/C=N/n2cnn(Cc3ccccc3Cl)c2=S)cc1	13.3%

Reference: publication PMC4336329 (PLoS ONE, 2015)
